In all, about 310,000 compounds went through this assay and about 2,200 (0.71%) showed an effect of 50% or more. Effects have a minus sign here. This is one part of the list.
Each compound was assayed against human ether-à-go-go-related gene (hERG) potassium channel (human, UniProt Q12809) (assay: primary screen, population patch clamp on CHO cells stably expressing hERG).
Sequence of human ether-à-go-go-related gene (hERG) potassium channel (Q12809 whole entry, looked up): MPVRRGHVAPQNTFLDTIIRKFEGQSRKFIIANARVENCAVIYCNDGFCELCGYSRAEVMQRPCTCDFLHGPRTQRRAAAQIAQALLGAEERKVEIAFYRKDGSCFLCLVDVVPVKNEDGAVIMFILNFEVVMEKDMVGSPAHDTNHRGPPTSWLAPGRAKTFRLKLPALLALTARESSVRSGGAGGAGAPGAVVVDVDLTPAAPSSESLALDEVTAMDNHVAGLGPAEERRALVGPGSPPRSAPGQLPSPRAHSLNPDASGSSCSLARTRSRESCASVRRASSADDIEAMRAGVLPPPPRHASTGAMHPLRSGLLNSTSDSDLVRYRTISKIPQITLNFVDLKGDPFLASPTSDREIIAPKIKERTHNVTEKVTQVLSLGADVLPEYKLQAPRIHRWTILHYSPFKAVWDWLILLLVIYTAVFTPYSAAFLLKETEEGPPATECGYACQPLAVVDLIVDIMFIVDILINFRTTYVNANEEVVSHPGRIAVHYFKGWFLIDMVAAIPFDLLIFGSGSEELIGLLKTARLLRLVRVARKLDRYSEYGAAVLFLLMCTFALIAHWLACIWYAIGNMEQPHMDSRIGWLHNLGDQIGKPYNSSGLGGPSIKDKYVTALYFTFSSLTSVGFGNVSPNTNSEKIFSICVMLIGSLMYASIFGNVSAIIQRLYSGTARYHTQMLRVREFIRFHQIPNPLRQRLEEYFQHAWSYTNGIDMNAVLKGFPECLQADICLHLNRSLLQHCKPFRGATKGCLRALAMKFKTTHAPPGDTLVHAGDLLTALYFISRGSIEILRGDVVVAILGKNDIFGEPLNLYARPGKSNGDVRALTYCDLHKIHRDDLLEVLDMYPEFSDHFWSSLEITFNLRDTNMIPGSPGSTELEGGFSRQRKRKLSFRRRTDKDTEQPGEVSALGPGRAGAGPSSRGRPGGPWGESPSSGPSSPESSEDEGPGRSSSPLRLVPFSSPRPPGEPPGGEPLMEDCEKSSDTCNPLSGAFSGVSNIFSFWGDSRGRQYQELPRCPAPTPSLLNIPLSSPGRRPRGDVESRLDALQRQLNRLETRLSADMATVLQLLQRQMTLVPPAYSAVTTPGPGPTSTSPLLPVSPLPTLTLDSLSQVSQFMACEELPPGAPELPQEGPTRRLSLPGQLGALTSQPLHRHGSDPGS

SMILES	hERG current change (%, negative = inhibition) at 1uM [%]
CN=C(C)/C(C(=O)OC)=C(/O)c1ccc(Cl)cc1Cl	11.3
Cc1cc(Nc2cc(F)ccc2C)n2ncnc2n1	8.73
COC(=O)C1=C(N)Oc2cc(C)n(Cc3cccnc3)c(=O)c2C1c1cccc(OC)c1OC (centres unmarked)	8.96
CCOC(=O)C1CCN(S(=O)(=O)c2cccc(-c3cn4cc(C)ccc4n3)c2)CC1	2.14
Cc1cccc(NC(=O)CSc2cc(C)c(C#N)c3nc4ccccc4n23)c1	13.4
O=C1N=c2ccc(Br)cc2=C1c1sc(=S)n(NS(=O)(=O)c2ccccc2)c1O	6.08
COC(=O)c1ccc(CSc2nnc3c(n2)[nH]c2ccccc23)cc1	-2.75
COc1ccccc1NC(=S)N(CCN(C)C)C(C)c1ccncc1 (centres unmarked)	-0.164
CSCCC(NC(=O)C12CC3CC(CC(C3)C1)C2)C(=O)OCC(=O)c1ccccc1 (centres unmarked)	11.9
O=C(NC1CCCC1)C(c1ccccn1)N(C(=O)c1csnn1)c1ccc(F)cc1 (centres unmarked)	12.9
CC(=O)c1cccc(N(CC(=O)Nc2cccnc2)S(C)(=O)=O)c1	0.334
O=C(NCCC1=CCCCC1)C1CCC(=O)N(Cc2cccc(C(F)(F)F)c2)C1 (centres unmarked)	3.98
COCCCn1c(=O)c2ccccc2n(CC(=O)NCCC2=CCCCC2)c1=O	2.07
Cc1ccc(OCCC(=O)OCC(=O)Nc2ccc(Cl)cn2)cc1	-8.19
Cn1nc(C(=O)Nc2ccccc2Cl)cc1C(=O)Nc1ccccc1Cl	11.7
CC(C)Oc1ccc2ccccc2c1C=O	7.42
O=C(O)C1(c2ccccc2)CCN(S(=O)(=O)c2ccc(Cl)s2)CC1	9.1
COCCn1c(SCc2nc3cc(OC)c(OC)cc3c(=O)[nH]2)nnc1-c1ccncc1	10.6
COC(=O)C1=C(c2cccc(OC)c2OC)C[C@@H]2CC[C@H]1N2C(=O)N1CCC(C)CC1	3.51
CCOc1ccc(NC(=O)CCCOc2cc(=O)n(C)c3ccccc23)cc1	5.22
COc1ccc(N=Cc2nc(-c3ccccc3)oc2OC(C)=O)cc1	13.7
CC(C)C[C@H](NC(=O)N1CC(=O)Nc2ccccc21)C(=O)N[C@@H](C(=O)O)c1ccccc1	9.71
CCOc1ccccc1NC(=O)CCC(=O)Nc1ccccc1OCC	9.15

SMILES	hERG current change (%, negative = inhibition) at 1uM [%]
CN1CCN(CC(=O)N2CCn3c4c(c5cc(C6CCCCC6)ccc53)CCCC42)CC1 (centres unmarked)	2.27
O=C(c1ccc(OC2CCN(Cc3ccc(F)cc3)CC2)cc1)N1CCCC1	7.68
O=C(O)c1nccnc1C(=O)N1CCN(c2ccccc2)CC1	9.08
CCN1CCN(Cc2cc(Br)cc(OC)c2O)CC1	2.15
COc1cccc(CNC(=O)c2cc3c(C)nc4ccccc4c3o2)c1	8
c1ccc2c(C[C@@H]3CNCCN3CC3CCCCC3)cccc2c1	15.6
CCOC(=O)N1CCN(Cc2cn[nH]c2-c2cc3ccccc3o2)CC1	-0.862
CC1CCCC(NC(=O)CSc2ncccn2)C1C (centres unmarked)	2.48
Cc1ccccc1-c1nnnn1C1CCS(=O)(=O)C1 (centres unmarked)	2.03
CCc1c(C)nc(SC/C=C/c2ccccc2)[nH]c1=O	1.87
CC1c2cc3c(cc2CCN1C(=O)c1cccc(F)c1)OCCCO3 (centres unmarked)	21.6
CC1CCC2(CC1)NC(=O)N(CC(=O)c1ccc(Cl)s1)C2=O (centres unmarked)	4.95
O=C1CN(C(=O)c2ccccc2F)C(c2ccccc2)c2cc(F)ccc2N1 (centres unmarked)	-2.56
O=C(Nc1ccc(C(F)(F)F)cc1)c1cccn(Cc2ccc3c(c2)OC(F)(F)O3)c1=O	4.3
O=C(Nc1ccc2c(c1)CCC2)C1COc2ccccc2O1 (centres unmarked)	-2.72
CCCc1c(C(=O)N/N=C/C(C)=C/c2ccccc2)nnn1-c1nonc1N	4.41
O=C(CCN1C(=O)/C(=C\c2ccccc2)SC1=S)NNC(=O)c1cccnc1	12
CCCC1C2CN(C(C)C)CC=C2C(C#N)=C(N)C1(C#N)C#N (centres unmarked)	0.259
COc1ccc(NC(=S)N2CCC(C(=O)c3ccc(C)cc3)CC2)c(OC)c1	31.5
CC(C)(C)c1ccc(/C=N/OCC(=O)NCc2ccc(F)cc2)cc1	11.5
COc1ccc(CN2CCNC(=O)C2CC(=O)NC2CCCCCC2)c(C)c1C (centres unmarked)	6.97
COCCOC(=O)C1=C(C)N(Cc2ccccc2)C(=O)NC1c1ccc(OC)cc1 (centres unmarked)	-1.91
COc1ccc(Cc2nc3ccc(C(=O)NCC4COCCO4)cc3o2)cc1OC (centres unmarked)	14.3

SMILES	hERG current change (%, negative = inhibition) at 1uM [%]
CC(C)=C1C2CCC1C1C(=O)N(c3ccc4c(c3)OCO4)C(=O)C21 (centres unmarked)	12.5
CCN(CC(=O)Nc1c(F)cccc1F)C(=O)c1ccc2c(c1)OCO2	10.2
Clc1cccc(N/N=C/c2ccncc2)c1	3.11
COc1cccc(CN2CCN(C(=O)CC(C)C)CC2)c1	-2.83
Cl.OCCNc1nc(N2CCN(c3ccccc3)CC2)nc2ccccc12	-49.3
CCn1c(CC(=O)Nc2ccccc2F)nnc1SCC(=O)N1CCOCC1	7.18
N#CCCn1cc(CNC2CCC(O)CC2)c2ccccc21 (centres unmarked)	15
COc1cc2c(cc1NC(=O)c1cccnc1)CCCC2	15.6
Cc1cc(Nc2c(C#N)c(N)nn2C)ccc1F	7.95
COc1ccc(-n2c(SCC(=O)C(C)(C)C)nc3ccsc3c2=O)cc1	10.2
O=C(/C=C/c1ccc(Cl)c([N+](=O)[O-])c1)Nc1cccnc1	4.94
COC(=O)c1sccc1NC(=O)c1ccccc1Br	9.34
Cc1ccc(-c2[nH]ncc2C(=O)c2ccc(Br)cc2)c(O)c1	5.02
BrCC(Br)C1CCC(Br)C(Br)C1 (centres unmarked)	20
Cc1ccc(CNC(=O)C2CCCCC2C(=O)O)cc1 (centres unmarked)	6.64
O=C(Nc1ccc(S(=O)(=O)N2CCCC2)cc1)c1ccc(Br)o1	13.7
COc1ccc(CC(=O)Nc2ccc(S(=O)(=O)N3CCOCC3)cc2)cc1	-14.7
CCCCC(=O)N(Cc1nc2sc(C)c(C)c2c(=O)[nH]1)C1CCCC1	11.5
CNCC(=O)N1CCN(c2ncc(C(F)(F)F)cc2Cl)CC1.Cl	2.03
O=C(O)C1C2C=CC(C2)C1C(=O)N1CCc2ccccc21 (centres unmarked)	15.8
CN1CCN(c2nc(-c3ccc(Br)cc3)nnc2-c2ccccc2)CC1	3.78
COc1ccc(/C=C2/N=C3CCCCCN3C2=O)cc1OC	12.5
CCc1ccc(OC(C)C(=O)Nc2ccc(S(=O)(=O)Nc3nccs3)cc2)cc1 (centres unmarked)	14.5

SMILES	hERG current change (%, negative = inhibition) at 1uM [%]
COc1ccc(/C(N)=N/OC(=O)C2CCCCC2)cc1	12.9
CCCNS(=O)(=O)c1ccc(CCC(=O)N2CCCC2)cc1	9.71
CCOc1ccc(NC(=O)c2cc(S(=O)(=O)N3CCCCC3)c[nH]2)cc1	11.3
COc1ccc(OC)c(NC(=O)CCN2CCN(c3ccccc3)CC2)c1	3.51
CSc1ccc(/C=N/N2CCN(Cc3ccc(C)cc3C)CC2)cc1	13.6
O=c1[nH]c(=S)[nH]nc1Cc1ccccc1	13.3
Cc1ccccc1N(CC(=O)NC1CCCC1)C(=O)c1oc(C(C)(C)C)cc1C	10.5
O=C(Nc1ncn[nH]1)c1cc([N+](=O)[O-])ccc1Cl	14.2
COC(=O)c1sccc1NC(=O)c1c(-c2ccccc2)noc1C	7.31
COc1cc(SC)ccc1C(=O)NCCc1c[nH]c2ccccc12	2.18
C=CCn1c(SCC(=O)Nc2ccc(OC)cc2)nc2c([nH]c3ccccc32)c1=O	13.8
Cc1cccc2c1-c1sc(C(=O)N3CCc4ccccc4C3)cc1CO2	12.9
CC1=C(C(=O)OC(C)C)C(c2c[nH]c3ccccc23)n2ncnc2N1 (centres unmarked)	9.73
CC(Oc1ccc(Cl)cc1Cl)c1nc(-c2ccc(NC(=O)c3ccco3)cc2)no1 (centres unmarked)	16.6
O=C(NCC1CCCO1)C1CC(=O)N(C2CCCC2)C1 (centres unmarked)	7.98
CC(=O)NC1CC2CCC(C1)N2 (centres unmarked)	5.32
O=C(c1ccccc1SCc1ccccc1)N1CCOCC1	-1.14
COc1ccc(C(CC(=O)c2ccc(C)cc2)C(C#N)C#N)cc1OC (centres unmarked)	8.98
NNc1ncnc2sc3c(c12)CCC3	14.4
CCCCNC(=O)c1onc(CSc2cccc(OCC)c2)c1C(=O)O	13.6
Cc1ccc(-c2n[nH]c(=S)n2/N=C/C=C\c2ccccc2[N+](=O)[O-])cc1	12.8
CCS(=O)(=O)CCSc1nc2ccccc2o1	9.72
C=CCOC(=O)CC(NC(=O)c1ccccc1)c1ccccc1 (centres unmarked)	-11.2
